According to the supplement of paper PMC3334620:
The full ranking holds about 33,000 sequences; the median of “E-score (-0.5 to 0.5)” is about -0.016, and the highest 2% start at about 0.31. The list shows a part of the results.

Molecular target: Cst6 (UniProt P40535)
Assay: PBM E-score (8-mer binding enrichment) (E-score (-0.5 to 0.5)); higher = stronger / more preferred TF binding; most listed sequences are background and not binding sites
Conditions: protein concentration: 200 nM; construct: GST-DNA-binding domain
How it was run: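 Each ungapped eight-base word and its reverse complement, pooled, received an E-score from the Universal PBM Analysis Suite. Underlying scans, normalised with masliner, recorded fluorescent anti-GST bound to GST-tagged yeast transcription factors. These were applied at about 100-200 nM to universal all-10-mer Agilent arrays double-stranded by primer extension.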

Sequence | PBM E-score
ATGATAAT | 0.279
ATGCTCGA | -0.00115
GCCCAGCA | -0.219
AGTGAGAG | -0.0695
CAGAGACG | -0.0161
AGATAACC | -0.11
ACTACCAA | -0.00043
ACCGCGGA | -0.0753
AGCTTTAC | -0.163
AGGAAGAA | -0.175
GAAAGAAC | 0.0777
ACGGGGAC | -0.225
CGTTGACA | 0.111
ACGTTTGA | 0.243
GCCAGAAC | -0.187
CTTGGCAC | -0.0923
CGGGTAGC | -0.151
ATATAGCC | 0.143
CTTGGCCA | -0.14
ATCTTCCA | -0.0815
CGGTTGTC | 0.0183
GCGACTAA | 0.0201
GCCTGTAA | -0.231
ATATCTAC | 0.0837
AGCTCGAC | -0.0154

Sequence | PBM E-score
CCCAGGCC | -0.304
ATTACCTA | 0.177
AGTTATAG | 0.104
CGATTAGA | 0.0971
GGTACCTA | -0.118
AGACTAGG | -0.143
ATCTTAGG | -0.0319
AACCTCGT | 0.028
CCCACAGA | -0.116
GTGGTGGA | -0.186
ATCAGATA | 0.0136
CGGATAGA | 0.122
GACTAAAC | -0.0697
CAAGCGTG | 0.00047
TCTATACA | -0.118
GAAAGATA | 0.191
GGTGGCCA | -0.129
AATCCGAC | -0.0562
CGTACTAA | 0.222
AGTGGGCG | -0.0507
CGACTGAA | -0.128
CTGTACTC | -0.312
ACCCCCCA | -0.301
CGCTCCGA | -0.114
ACAATGGA | 0.043

Sequence | PBM E-score
ACGCTTCC | -0.0471
GGACTCGA | -0.158
TACCACGA | -0.0545
CGAAGCTC | -0.235
ATACGGTC | -0.0142
ATTGCGCA | -0.0485
ATTGGTTC | 0.145
AGACAGAG | -0.0196
ATGCAGCC | 0.0192
CGGAATGA | 0.0862
AAGCGAGG | -0.205
CGACACAC | 0.0466
CAAAACCG | 0.0918
GATCGAGA | -0.0742
GATATATA | 0.304
CGCTATGC | 0.0733
TGCTCTAA | 0.0796
AGGCGCAG | -0.146
CGGCAACC | -0.0677
AGGGAAAT | -0.0653
ACTACTTC | -0.107
CAGTCTAC | -0.271
GACCGCTA | -0.173
TAACATAA | 0.272
CCTTCATC | -0.228

Sequence | PBM E-score
GGTATAAA | 0.102
GAATGCTA | -0.0649
GGCTTCTA | -0.0454
ACACCACC | -0.18
GCCATTCC | -0.0999
ATTCTGTG | 0.125
AGGATTGA | 0.128
CTGGGCGC | -0.154
ACCCAATC | -0.0536
AGAACCAA | -0.0417
GACTGGCA | -0.256
AGCAATCG | 0.0985
CAATTGGG | -0.0413
GAGTGATA | 0.128
AACGCCAA | 0.15
ATGGCCGG | -0.331
CCCGCTCA | -0.0513
AGAAGGAG | -0.231
AGTGTGGC | -0.042
ATGTGGCC | -0.174
CATTCCAG | -0.0492
GGAACCCA | -0.264
CCTTCGCG | -0.151
CGCATGGA | -0.255
CATTATGG | -0.157

Sequence | PBM E-score
ATCTTGTC | 0.16
CTCTCTGA | -0.163
CTAACCGA | -0.128
CATTGTTA | 0.188
AAATCTTA | 0.211
CTTTCGTC | 0.175
CTGACATA | 0.324
ACTATTCG | 0.0539
CGGCACTA | 0.209
CCGCATAA | 0.221
CCAAGAAG | 0.00152
GCCGACGA | -0.14
ACGTAGAC | 0.0579
CGATTCGC | -0.0221
ACAGTAGC | -0.145
GATTGCAA | 0.00256
AGATGCGC | -0.0257
ACTATAAC | 0.067
CGAACTAC | 0.00996
CTGAGAGC | -0.0922
AGAGGTCC | -0.238
CTCATCCA | 0.0578
TTGGGAAA | 0.14
ATCTTACA | 0.168
CCCGGTAG | -0.265

Sequence | PBM E-score
AGAAAAGC | 0.0634
GACGAGAA | 0.242
GGCGCACA | 0.00702
CGTAAAGC | -0.114
TAATATCA | 0.319
AGGACACT | -0.246
ACCGAGCC | -0.0469
TACTAGGA | -0.202
CCAATCGG | -0.0323
GGGTAGCA | -0.125
TCACCAGA | -0.0527
CCCCGCTA | -0.105
GGTCGTTA | -0.00422
AGAGACCG | -0.277
GCCCAATA | -0.0158
ATTGTCAC | 0.219
CCTAACCA | 0.0122
GGGACGAC | -0.17
AGCGACGA | -0.109
TACCATAA | 0.194
TACAATAA | 0.17
GTGCCACA | -0.0104
ATGTTGCA | 0.0388
AAAGGTCA | -0.0478
ACCCCCGG | -0.297

Sequence | PBM E-score
GGAACACA | -0.114
AAGAGCGC | 0.0801
CGTTAAAA | -0.0836
ACTATCCC | -0.222
CGGGTAAG | -0.212
CTTGGAGC | -0.246
GCACCTCC | -0.262
CATGGAGC | -0.137
GCCGTATA | 0.367
CATCCGAA | 0.0751
CGGCCGTC | -0.0527
CACTGCCC | -0.183
AGGCGGCG | 0.204
AAAGCGGA | 0.0107
AAGGGGGC | -0.279
AGTGAAGC | -0.0533
GGTAAACA | 0.169
AAATCTGG | 0.0145
AGCTGAAC | -0.295
AGTTCCCC | -0.0931
AAGTAAGG | 0.036
TACTCGAA | 0.167
AAAGCATC | -4e-05
ATGGGGAA | -0.0399
GTGATCAC | -0.0135

Sequence | PBM E-score
AATCGACC | -0.0526
AATGGGTA | 0.0645
GCCCCTCC | -0.214
CCTGCATA | -0.0878
CCCAGTAC | -0.202
AGGACTTA | -0.169
AACGGTAT | 0.0884
CGCGGATC | -0.0565
CGCACAGC | -0.0292
CCCGCGTC | 0.104
GAGTAGCC | -0.145
TCCTTTAA | -0.0494
CGAGTGAC | 0.115
GGGAGACA | -0.168
AATGTGCC | 0.0547
GCGTTACC | -0.0944
CCGCGAGC | -0.169
GTGTCGCA | 0.0474
GCGACACA | -0.0743
CACCAGTC | -0.206
ATCGTAGG | -0.153
ATATAATG | 0.252
ACTGTGGG | -0.0161
AGATTGCA | 0.0345
CGTAGATA | 0.156

Sequence | PBM E-score
CCGGGCAA | -0.282
CTTCAGGC | -0.131
GAGGTGTA | 0.0415
CAAGGGTG | 0.0508
GGAACGAA | -0.0214
ACCCCTTA | -0.118
GTGTAAGA | 0.0158
CTACCGTC | -0.206
CTAGAGAG | -0.196
AACGGATC | 0.215
CGATTAGC | -0.0851
ATCATTCA | 0.27
CGCTAGAG | -0.0884
TAAGGTAA | 0.114
GCTGCAGC | -0.209
GCGGATTA | -0.0144
CGGGTTAC | 0.034
ACTTTGCT | -0.0941
CGTCATAC | 0.481
GAGAGAGA | 0.0046
GCCTTTAA | -0.00012
AATTCGGC | -0.107
CTGCGCGA | -0.038
ATATGTGG | 0.14
AGACAACT | 0.0492

Sequence | PBM E-score
GCTTCGAA | -0.0925
AGTAATAC | -0.0264
AAAGTAAC | 0.105
ACCTCTAG | -0.111
AGTGAATA | 0.179
GGCGCAAC | -0.00604
ACGCCCAA | -0.0666
CGGCTGGA | -0.227
AACACACC | 0.0799
ATATTGCC | 0.149
ACAAAGTA | 0.135
AGTACATC | -0.0114
AGGCGCCC | -0.00596
CGACAGTA | -0.165
TAAGTATA | 0.122
ATAGACCA | -0.111
TCCCCAGA | -0.143
ATCACCGA | 0.212
GCGAGTAA | 0.117
CATTGCGC | 0.0683
GGCACCAC | -0.1
AATTCCCT | -0.0661
CAAGCTCC | -0.261
AACTGTGC | -0.138
GTGCACTA | -0.0162

Sequence | PBM E-score
GCTGTCAA | -0.0289
AAGGAAGG | -0.14
TCAGAACA | 0.158
CACTAGTC | -0.147
CCCACGGG | -0.214
ACCAGTGC | -0.193
AAGTGAGT | -0.106
CGGTAAGA | -0.0608
AATCGGAT | 0.148
CCAGTCGA | -0.177
GGGAACGA | -0.224
AGTCTTCG | -0.0386
GATCTACA | 0.041
ACAGACCT | -0.0625
ACGGTTGA | 0.0328
AGTACCCG | -0.115
AAAATTCA | 0.304
CAAAGGTC | -0.136
ACCCTGGA | -0.368
AGGGCAGA | -0.248
TCTACCAA | -0.0399
ATCGAGCG | 0.0446
CCCTGTCA | -0.0501
GGTTGTTA | 0.18
CGAACCAG | 0.0173

Sequence | PBM E-score
AATGCAAT | -0.03
AGTAAGAT | 0.137
AACTCTCA | 0.0558
CTCCTGGC | -0.195
GACTGGAA | -0.103
CCCACAAA | 0.178
CTTACGGA | -0.145
CGGAGAAG | -0.31
AAATAGTG | 0.217
CATCAAAC | 0.0468
GGGTTGGA | -0.206
CAGTGGGA | -0.182
AAAGCGGT | -0.114
ATGTTCGC | -0.0426
GATCTCTA | -0.0783
CCTTCGAC | -0.189
ACTTAACG | -0.0323
CACGCTGC | -0.246
CAAGAGGC | 0.0779
AGGTCCAC | -0.321
GAGCGGCC | -0.126
ACAAGCGA | 0.00814
CCTGATAC | 0.0914
CAGTGTTC | -0.0383
AAATCTGT | 0.0829

Sequence | PBM E-score
AAAATAGT | 0.186
ATCTCGTC | 0.15
CCACTGCG | -0.0063
AGCCCAAG | -0.213
GCTGCCTA | -0.062
ACGGGTGC | -0.0491
AAATCTAC | 0.169
CAATTATA | 0.0794
CGCCTTTA | 0.0883
CGGTAGTA | -0.0951
GCTTGTGA | -0.0634
CCAGTCTA | -0.227
ACACCTAG | -0.262
CGGCACGA | 0.21
CACCTATG | -0.00707
ACCTGTCA | -0.0473
GCGTGCTA | -0.194
CTGCTCTA | 0.075
ATAGATGG | -0.129
CATGTTCC | -0.0952
CCCGCCAC | 0.0116
AAAGGGCG | 0.0973
TACGCCAA | -0.00893
CTTCGTCA | 0.336
CGATACAC | -0.0629

Sequence | PBM E-score
CGCCGAGA | -0.151
ATAAATCC | 0.0264
CCCGATTC | -0.0826
AACAAAGT | 0.133
ATTTGAAC | 0.106
ACACTGAC | 0.0541
AGTACTCC | -0.258
CGTCAGCA | 0.22
ACACGGGC | -0.234
AATTTTCT | 0.194
AACAGTCT | -0.208
GATCTAAC | 0.131
AATATATG | 0.171
TGCCCCCA | -0.224
CCAGTTGC | -0.135
ATCATTAA | 0.28
ACAGCGAA | 0.0424
TGAGAGCA | -0.109
CCCCTCCG | -0.209
